# The list shows a part of the results.
# B1: OrfX (Escherichia coli), Q9X4B6_ECOLX (protein)
# chain: MIKIARIAVTLGLLSSLGAQAYAAGLVVNDNDLRNDLAWLSDRGVIHLSLSTWPLSQEEIARALKKAKPSYSSEQVVLARINQRLSALKADFRVTGYTSTDQPGTPQGFGQTQPADNSLGLAFNNSGEWWDVHLQGNVEGGERISNGSRFNANGAYGAVKFWNQWLSFGQVPQWWGPGYEGSLIRGDAMRPMTGFLMQRAEQAAPETWWLRWVGPWQYQISASQMNQYTAVPHAKIIGGRFTFTPFQSLELGASRIMQWGGEGRPQSFSSFWDGFTGHDNTGTDNEPGNQLAGFDFKFKLEPTLGWPVSFYGQMVGEDESGYLPSANMFLGGVEGHHGWGKDTVNWYVEAHDTRTNMSRTNYSYTHHIYKDGYYQQGYPLGDAMGGDGQLIAGKVELITEDNQRWSTRLVYAKVNPENQSINKAFPHADTLKGLQLGWSGDVYQSVRLNTSLWYTNANNSDSDDVGASAGIEIPFSL
# Columns and labels:
# Experiment in all cases: glycan array binding signal (z-score within array); higher = stronger binding
# Settings in all cases: glycan notation: IUPAC condensed, linker removed
# Gal(a1-3)Gal(b1-3)GlcNAc = target: Gal(a1-3)Gal(b1-3)GlcNAc
# Method in brief: (§1)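 The binding signal is a Z-score computed within each array. Data were drawn from 3228 arrays in the Consortium for Functional Glycomics database, restricted to those with a known protein sequence. Scores were averaged over arrays of the same protein sequence at different concentrations or buffers, and over linkers, and negative values can be taken as non-binding.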
# [1] = target: Gal(a1-3)Gal(b1-3)GlcNAc(b1-2)Man(a1-3)[Gal(a1-3)Gal(b1-3)GlcNAc(b1-2)Man(a1-6)]Man(b1-4)GlcNAc(b1-4)GlcNAc
# Method in brief: as §1
# [2] = target: Gal(a1-3)Gal(b1-3)GlcNAc(b1-3)GalNAc
# Method in brief: as §1
# [3] = target: Gal(a1-3)Gal(b1-3)GlcNAc(b1-6)GalNAc
# Method in brief: as §1
# [4] = target: Gal(a1-3)Gal(b1-3)[Fuc(a1-4)]GlcNAc(b1-2)Man(a1-3)[Gal(a1-3)Gal(b1-3)[Fuc(a1-4)]GlcNAc(b1-2)Man(a1-6)]Man(b1-4)GlcNAc(b1-4)GlcNAc
# Method in brief: as §1
# Gal(a1-3)Gal(b1-4)Glc = target: Gal(a1-3)Gal(b1-4)Glc
# Method in brief: as §1
# Gal(a1-3)Gal(b1-4)GlcNAc = target: Gal(a1-3)Gal(b1-4)GlcNAc
# Method in brief: as §1
# [5] = target: Gal(a1-3)Gal(b1-4)GlcNAc(b1-3)GalNAc
# Method in brief: as §1
# [6] = target: Gal(a1-3)Gal(b1-4)GlcNAc(b1-6)GalNAc
# Method in brief: as §1
# [7] = target: Gal(a1-3)Gal(b1-4)[Fuc(a1-3)]GlcNAc
# Method in brief: as §1
# [8] = target: Gal(a1-3)Gal(b1-4)[Fuc(a1-3)]GlcNAc(b1-2)Man(a1-3)[Gal(a1-3)Gal(b1-4)[Fuc(a1-3)]GlcNAc(b1-2)Man(a1-6)]Man(b1-4)GlcNAc(b1-4)GlcNAc
# Method in brief: as §1
# Gal(a1-3)GalNAc = target: Gal(a1-3)GalNAc
# Method in brief: as §1
# [9] = target: Gal(a1-3)[Gal(a1-4)]Gal(b1-4)GlcNAc
# Method in brief: as §1
# [10] = target: Gal(a1-4)Gal(b1-3)GlcNAc(b1-2)Man(a1-3)[Gal(a1-4)Gal(b1-3)GlcNAc(b1-2)Man(a1-6)]Man(b1-4)GlcNAc(b1-4)GlcNAc
# Method in brief: as §1
# Gal(a1-4)Gal(b1-4)Glc = target: Gal(a1-4)Gal(b1-4)Glc
# Method in brief: as §1
# Gal(a1-4)Gal(b1-4)GlcNAc = target: Gal(a1-4)Gal(b1-4)GlcNAc
# Method in brief: as §1
# [11] = target: Gal(a1-4)Gal(b1-4)GlcNAc(b1-2)Man(a1-3)[Gal(a1-4)Gal(b1-4)GlcNAc(b1-2)Man(a1-6)]Man(b1-4)GlcNAc(b1-4)GlcNAc
# Method in brief: as §1
# [12] = target: Gal(a1-4)Gal(b1-4)GlcNAc(b1-3)Gal(b1-4)Glc
# Method in brief: as §1
# Gal(a1-4)GlcNAc = target: Gal(a1-4)GlcNAc
# Method in brief: as §1
# Gal(a1-6)Glc = target: Gal(a1-6)Glc
# Method in brief: as §1
# Gal(b1-2)Gal = target: Gal(b1-2)Gal
# Method in brief: as §1
# Gal(b1-3)Gal = target: Gal(b1-3)Gal
# Method in brief: as §1
# Gal(b1-3)Gal(b1-4)GlcNAc = target: Gal(b1-3)Gal(b1-4)GlcNAc
# Method in brief: as §1
# [13] = target: Gal(b1-3)Gal(b1-4)GlcNAc(b1-2)Man(a1-3)[Gal(b1-3)Gal(b1-4)GlcNAc(b1-2)Man(a1-6)]Man(b1-4)GlcNAc(b1-4)GlcNAc
# Method in brief: as §1
# Gal(b1-3)GalNAc = target: Gal(b1-3)GalNAc
# Method in brief: as §1
# [14] = target: Gal(b1-3)GalNAc(a1-3)[Fuc(a1-2)]Gal(b1-4)Glc
# Method in brief: as §1
# [15] = target: Gal(b1-3)GalNAc(a1-3)[Fuc(a1-2)]Gal(b1-4)GlcNAc
# Method in brief: as §1
# [16] = target: Gal(b1-3)GalNAc(b1-3)Gal(a1-4)Gal(b1-4)Glc
# Method in brief: as §1
# [17] = target: Gal(b1-3)GalNAc(b1-4)Gal(b1-4)Glc
# Method in brief: as §1
# [18] = target: Gal(b1-3)GalNAc(b1-4)[Neu5Ac(a2-3)]Gal(b1-4)Glc
# Method in brief: as §1
# Gal(b1-3)GlcNAc = target: Gal(b1-3)GlcNAc
# Method in brief: as §1
# [19] = target: Gal(b1-3)GlcNAc(a1-3)Gal(b1-4)GlcNAc
# Method in brief: as §1
# [20] = target: Gal(b1-3)GlcNAc(a1-6)Gal(b1-4)GlcNAc
# Method in brief: as §1
# [21] = target: Gal(b1-3)GlcNAc(b1-2)Man(a1-3)[Gal(b1-3)GlcNAc(b1-2)Man(a1-6)]Man(b1-4)GlcNAc(b1-4)GlcNAc
# Method in brief: as §1
# [22] = target: Gal(b1-3)GlcNAc(b1-2)Man(a1-3)[Gal(b1-3)GlcNAc(b1-2)Man(a1-6)]Man(b1-4)GlcNAc(b1-4)[Fuc(a1-6)]GlcNAc
# Method in brief: as §1
# [23] = target: Gal(b1-3)GlcNAc(b1-2)Man(a1-3)[GlcNAc(b1-4)][Gal(b1-3)GlcNAc(b1-2)Man(a1-6)]Man(b1-4)GlcNAc(b1-4)GlcNAc
# Method in brief: as §1
# [24] = target: Gal(b1-3)GlcNAc(b1-2)[Gal(b1-3)GlcNAc(b1-6)]Man(a1-6)[Gal(b1-3)GlcNAc(b1-2)Man(a1-3)]Man(b1-4)GlcNAc(b1-4)GlcNAc
# Method in brief: as §1
binder,measurement,setting,value
B1,glycan array binding signal (z-score),Gal(a1-3)Gal(b1-3)GlcNAc,-0.213
same,glycan array binding signal (z-score),[1],0.011
same,glycan array binding signal (z-score),[2],-0.08
same,glycan array binding signal (z-score),[3],-0.013
same,glycan array binding signal (z-score),[4],0.793
same,glycan array binding signal (z-score),Gal(a1-3)Gal(b1-4)Glc,-0.261
same,glycan array binding signal (z-score),Gal(a1-3)Gal(b1-4)GlcNAc,-0.274
same,glycan array binding signal (z-score),[5],-0.105
same,glycan array binding signal (z-score),[6],-0.23
same,glycan array binding signal (z-score),[7],-0.288
same,glycan array binding signal (z-score),[8],0.01
same,glycan array binding signal (z-score),Gal(a1-3)GalNAc,-0.336
same,glycan array binding signal (z-score),[9],-0.175
same,glycan array binding signal (z-score),[10],-0.18
same,glycan array binding signal (z-score),Gal(a1-4)Gal(b1-4)Glc,0.325
same,glycan array binding signal (z-score),Gal(a1-4)Gal(b1-4)GlcNAc,-0.022
same,glycan array binding signal (z-score),[11],0.031
same,glycan array binding signal (z-score),[12],-0.181
same,glycan array binding signal (z-score),Gal(a1-4)GlcNAc,-0.193
same,glycan array binding signal (z-score),Gal(a1-6)Glc,0.209
same,glycan array binding signal (z-score),Gal(b1-2)Gal,-0.204
same,glycan array binding signal (z-score),Gal(b1-3)Gal,-0.112
same,glycan array binding signal (z-score),Gal(b1-3)Gal(b1-4)GlcNAc,-0.203
same,glycan array binding signal (z-score),[13],-0.325
same,glycan array binding signal (z-score),Gal(b1-3)GalNAc,-0.236
same,glycan array binding signal (z-score),[14],-0.182
same,glycan array binding signal (z-score),[15],-0.321
same,glycan array binding signal (z-score),[16],-0.25
same,glycan array binding signal (z-score),[17],-0.211
same,glycan array binding signal (z-score),[18],-0.306
same,glycan array binding signal (z-score),Gal(b1-3)GlcNAc,-0.132
same,glycan array binding signal (z-score),[19],-0.298
same,glycan array binding signal (z-score),[20],-0.319
same,glycan array binding signal (z-score),[21],-0.164
same,glycan array binding signal (z-score),[22],-0.237
same,glycan array binding signal (z-score),[23],0.214
same,glycan array binding signal (z-score),[24],-0.334

# — the supplement of paper PMC8728848
